# Source: article PMC4336329 (PLoS ONE, 2015)
# The campaign covered roughly 310,000 compounds. About 2,200 (0.71%) showed an effect of 50% or more. The effect is printed as a negative number. Some of the results follow.
# Target: human ether-à-go-go-related gene (hERG) potassium channel (human, UniProt Q12809)
# Assay: primary screen, population patch clamp on CHO cells stably expressing hERG
# human ether-à-go-go-related gene (hERG) potassium channel, sequence (Q12809 whole entry, looked up): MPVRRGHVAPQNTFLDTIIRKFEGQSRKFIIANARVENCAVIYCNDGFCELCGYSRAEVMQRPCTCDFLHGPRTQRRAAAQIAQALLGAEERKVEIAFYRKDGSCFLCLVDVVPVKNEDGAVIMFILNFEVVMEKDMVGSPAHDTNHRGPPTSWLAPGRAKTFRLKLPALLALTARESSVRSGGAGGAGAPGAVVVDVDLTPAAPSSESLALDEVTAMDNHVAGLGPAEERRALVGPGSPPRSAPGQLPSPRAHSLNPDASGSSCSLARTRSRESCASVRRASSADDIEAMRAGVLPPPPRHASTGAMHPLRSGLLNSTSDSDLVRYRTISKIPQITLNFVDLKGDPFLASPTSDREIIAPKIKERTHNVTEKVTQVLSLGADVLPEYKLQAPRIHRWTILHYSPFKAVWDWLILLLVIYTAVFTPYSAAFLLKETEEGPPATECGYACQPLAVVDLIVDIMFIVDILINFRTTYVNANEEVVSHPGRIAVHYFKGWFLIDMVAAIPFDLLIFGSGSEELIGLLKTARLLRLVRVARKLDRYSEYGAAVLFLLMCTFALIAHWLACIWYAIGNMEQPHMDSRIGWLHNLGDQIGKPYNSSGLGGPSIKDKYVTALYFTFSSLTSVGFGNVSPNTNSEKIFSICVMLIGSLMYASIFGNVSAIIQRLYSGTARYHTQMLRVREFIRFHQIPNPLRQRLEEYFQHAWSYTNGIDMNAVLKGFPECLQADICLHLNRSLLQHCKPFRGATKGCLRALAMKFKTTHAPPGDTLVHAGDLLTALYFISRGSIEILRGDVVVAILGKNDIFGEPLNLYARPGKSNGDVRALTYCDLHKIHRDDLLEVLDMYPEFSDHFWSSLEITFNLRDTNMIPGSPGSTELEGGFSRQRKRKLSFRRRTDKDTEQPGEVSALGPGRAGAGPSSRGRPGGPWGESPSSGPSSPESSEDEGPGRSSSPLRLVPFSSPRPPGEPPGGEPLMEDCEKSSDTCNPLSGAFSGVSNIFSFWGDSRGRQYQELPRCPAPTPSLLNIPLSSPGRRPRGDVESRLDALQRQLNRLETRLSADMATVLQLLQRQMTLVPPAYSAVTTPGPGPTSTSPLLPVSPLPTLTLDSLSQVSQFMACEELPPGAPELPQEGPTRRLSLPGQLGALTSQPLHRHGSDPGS
row,SMILES,"hERG current change (%, negative = inhibition) at 1uM"
1,COC(=O)c1ccccc1NC(=O)CN1CCN(Cc2ccccc2)CC1,-69.6%
2,Cc1csc(NC(=O)CSc2nnc(-c3ccco3)n2C)n1,0.983%
3,CCCCN(CCCC)CCNC(=O)CN1C(=O)COc2ccc(S(=O)(=O)N3CCOCC3)cc21,-0.559%
4,COc1ccc2c(c1)oc(=O)c1ccccc12,-13.9%
5,COc1ccc(NC(=O)c2sc3nc(C)nc(N4CCOCC4)c3c2C)c(OC)c1,5.36%
6,Cc1cc(NC(=O)COc2ccc(C)c(C)c2)no1,13.8%
7,CC1CCN(C(=O)COC(=O)c2cc(S(=O)(=O)N3CCOCC3)ccc2Cl)CC1,-5.3%
8,CCCn1c(=O)c2ccccc2n2c(SCCOc3ccc(C)cc3)nnc12,8.9%
9,CC1(C)C(=O)Nc2ccccc2N1C(=O)COC(=O)Cn1cnc2ccccc2c1=O,7.15%
10,O=C(c1cccnc1)N1C2C=CC(C2)C1(C(F)(F)F)C(F)(F)F (centres unmarked),12.7%
11,CSc1ccccc1NC(=O)c1ccc2c(c1)CCN2S(C)(=O)=O,10.4%
12,Cl.Nc1ccc(C(=O)N/N=C2/CN3CCC2CC3)cc1,11.5%
13,COc1ccccc1N1CCN(C(=O)c2cc(=O)c3cc(C)cc(C)c3o2)CC1,-1.21%
14,CCN(CC)C(=O)c1ccc(NC(=O)c2sccc2-c2ccccc2)cc1,9.83%
15,O=C(NC1CCCCC1)C(c1cccnc1)N(C(=O)c1csnn1)c1ccc(F)cc1 (centres unmarked),13.1%
16,O=C(NC1(O)C(=O)c2ccccc2C1=O)c1ccccc1,9.94%
17,CC(C)(CNC(=O)CC1C(=O)NCCN1Cc1cccc(F)c1)N1CCOCC1 (centres unmarked),10.5%
18,CSCC[C@H](NC(=O)[C@@H]1Cc2ccccc2CN1)C(=O)NCC1CCC(C(=O)O)CC1.Cl (some centres unmarked),-6.65%
19,Cc1nn(C)c(Oc2cccc(Cl)c2)c1C(=O)O,-0.157%
20,Cc1cc(Nc2ccccc2)n(CCOC(=O)COc2ccccc2)n1,11.8%
21,Cc1ccc2c(c1)NC(=O)c1cccnc1N2,-7.78%
22,CC[N+](CC)(CC)CCOc1cccc(OCC[N+](CC)(CC)CC)c1OCC[N+](CC)(CC)CC.[I-],17.6%

row,SMILES,"hERG current change (%, negative = inhibition) at 1uM"
1,CCC(=O)Nc1cccc(NC(=S)NC(=O)c2ccc(Cl)cc2)c1,10.7%
2,Cc1c(C(=O)N2CCCC2)sc(NC(=O)c2cccs2)c1C#N,11.5%
3,O=C(Nc1nc(-c2ccc3ccccc3c2)cs1)c1ccc(N2C(=O)CCC2=O)cc1,12.2%
4,Cc1cc(C(=O)NC2=NCCS2)cs1,-13%
5,O=C1CCC[C@@H]2Cc3[nH]c4c(Cl)ccc(Cl)c4c3[C@@H]3CCN1[C@H]23,3.72%
6,O=C(NNC1=NCCN1Cc1ccccc1)c1cccc(C(F)(F)F)c1,1.8%
7,Cc1cc(NC(=O)CCC(=O)N(Cc2cccs2)C(C)(C)C(=O)NC2CCCCC2)no1,13.6%
8,Cc1nc2oc3c(=O)[nH]cnc3c2c2c1COC(C)(C)C2,7.83%
9,Nc1nc(Cl)nc2ccc(Br)cc12,11.5%
10,CCOC(=O)Cn1cnc2c(cnn2-c2ccc(OC)cc2)c1=O,17.1%
11,CCc1ccc(-c2csc3[n+]2CCN3C(C)=O)cc1.[Br-],-2.61%
12,CC1CCC(NC(=O)COc2ccccc2C(N)=O)CC1 (centres unmarked),8.88%
13,FC(F)(F)c1cccc(-c2nnc(-c3ccccc3)c(N3CCOCC3)n2)c1,-11.9%
14,Cc1ccc(S(=O)(=O)n2nc(C)c(Br)c2C)c(C)c1C,13.4%
15,Cc1cccc(NC(=O)CSc2nccn2C)c1,10.9%
16,COc1ccc(-c2nc3c([nH]2)c(=O)n(C)c(=O)n3C)c(OC)c1,7.91%
17,CC(NC(=O)Nc1ccc([N+](=O)[O-])cc1)C(c1cccs1)N1CCCC1 (centres unmarked),-34.8%
18,CCN(CC)S(=O)(=O)c1cc(OCC(N)=O)c(C)cc1Cl,4.73%
19,O=S(=O)(NC1CCCCCCC1)c1ccccc1,7.9%
20,O=C(NC1CCCC1)C(c1ccncc1)N(C(=O)c1ccco1)c1ccccc1 (centres unmarked),2.13%
21,CCOc1ccc(C2N(c3cc(Cl)ccc3OC)C(=O)C3CCCN32)cc1OC (centres unmarked),3.61%
22,C=CCn1c(CNC(=O)c2ccccc2F)nnc1SCC(=O)N1CCOCC1,-6.65%
